Results on 46 molecules are retold here after paper PMC4336329 (PLoS ONE, 2015).

SMILES strings stand for the structures. The whole screen tested about 310,000 compounds, of which about 14,000 (4.5%) showed an effect of 50% or more. The effect is printed as a negative number. This is one part of the list.
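Note: peak tail current of the secondary pulse compared with the same well before compound.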

Chain of human ether-à-go-go-related gene (hERG) potassium channel (Q12809 whole entry, looked up): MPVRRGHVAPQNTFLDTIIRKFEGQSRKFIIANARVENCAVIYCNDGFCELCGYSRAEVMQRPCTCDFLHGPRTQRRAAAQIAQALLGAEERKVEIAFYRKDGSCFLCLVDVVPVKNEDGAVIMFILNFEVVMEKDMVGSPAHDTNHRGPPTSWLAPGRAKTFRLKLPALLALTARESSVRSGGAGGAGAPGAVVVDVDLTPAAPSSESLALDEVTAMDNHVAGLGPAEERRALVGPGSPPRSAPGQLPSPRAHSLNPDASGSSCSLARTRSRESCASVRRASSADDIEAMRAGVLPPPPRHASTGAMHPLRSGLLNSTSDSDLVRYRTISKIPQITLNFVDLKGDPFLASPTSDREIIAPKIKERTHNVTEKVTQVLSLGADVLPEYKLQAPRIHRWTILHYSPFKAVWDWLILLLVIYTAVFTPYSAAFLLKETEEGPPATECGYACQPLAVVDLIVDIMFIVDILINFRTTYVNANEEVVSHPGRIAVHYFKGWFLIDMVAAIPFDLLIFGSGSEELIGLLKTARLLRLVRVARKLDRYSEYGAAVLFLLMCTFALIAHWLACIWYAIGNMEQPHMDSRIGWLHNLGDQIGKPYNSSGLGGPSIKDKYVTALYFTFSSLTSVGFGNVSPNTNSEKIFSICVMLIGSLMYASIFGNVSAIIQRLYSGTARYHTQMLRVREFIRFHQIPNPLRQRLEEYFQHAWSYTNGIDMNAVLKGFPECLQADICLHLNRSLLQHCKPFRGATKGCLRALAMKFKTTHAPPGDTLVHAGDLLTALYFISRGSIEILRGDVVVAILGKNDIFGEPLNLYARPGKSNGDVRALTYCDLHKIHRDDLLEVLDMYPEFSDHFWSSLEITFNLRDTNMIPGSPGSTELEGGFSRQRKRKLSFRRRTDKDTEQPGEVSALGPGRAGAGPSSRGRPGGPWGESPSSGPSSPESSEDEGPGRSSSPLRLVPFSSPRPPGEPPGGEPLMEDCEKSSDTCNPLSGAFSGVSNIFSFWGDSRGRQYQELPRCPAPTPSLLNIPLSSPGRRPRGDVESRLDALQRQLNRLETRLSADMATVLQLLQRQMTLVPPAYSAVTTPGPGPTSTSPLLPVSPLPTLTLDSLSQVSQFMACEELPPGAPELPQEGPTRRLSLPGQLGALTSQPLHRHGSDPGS

This assay has as its target human ether-à-go-go-related gene (hERG) potassium channel (human, UniProt Q12809). Briefly: primary screen, population patch clamp on CHO cells stably expressing hERG.
With `O=C(CN1CCN(Cc2ccccc2)CC1)Nc1nc2ccccc2s1`, the “hERG current change (%, negative = inhibition) at 10uM” value is recorded as -68.2%. Then `O=C(CSc1nnc(C2COc3ccccc3O2)o1)N1CCCC1` (stereo not shown), with 15.9%; and `COc1cc(C(=O)OCCCOC(=O)c2cc(OC)c(OC)c(OC)c2)cc(OC)c1OC`, with 0.241%. Next, `O=C(CCNS(=O)(=O)c1ccc(Cl)cc1)NCc1cccnc1`: 5.49%.

Regarding `N#Cc1ccc(/C=N/NC(=O)c2cccc(S(=O)(=O)N3CCOCC3)c2)cc1`, the “hERG current change (%, negative = inhibition) at 10uM” value is on record as 13.3%.

`CC(NC(=O)C1CCCN(C(=O)N(C)C)C1)c1ccccc1` (stereo not shown): the “hERG current change (%, negative = inhibition) at 10uM” value was determined as 4.5%.

Consider `CCn1c(C)nnc1SCC(=O)Nc1ccc2c(c1)OCCO2`, for which the “hERG current change (%, negative = inhibition) at 10uM” value was determined as 2.36%. For the molecule `CC(c1ccccc1)N1CCn2c(nc3cc(NS(C)(=O)=O)ccc32)C1` (stereo not shown), the “hERG current change (%, negative = inhibition) at 10uM” value is listed as -15.6%.

Take `Cc1ccc(C)c(-c2nnc(NC(=O)Cc3ccc(F)cc3)o2)c1`: the “hERG current change (%, negative = inhibition) at 10uM” value is on record as 19.8%.

On to `Cc1cccc(C)c1N(CC(=O)NCc1ccc(F)cc1)C(=O)c1csnn1`, for which the “hERG current change (%, negative = inhibition) at 10uM” value is -3.82%. With `CN(Cc1cccnc1)C(=O)c1ccc2nc(Cc3ccccc3F)oc2c1`, the “hERG current change (%, negative = inhibition) at 10uM” value is -14.8%. Then `Cc1nc2sc(C(c3ccc(Cl)cc3)N3CCOCC3)c(O)n2n1` (stereo not shown), with -15.5%; and `CCc1ccc(OC(=O)c2ccn(CC)n2)cc1`, with -0.408%; and `Cc1oc2cc3oc(=O)c(CC(=O)NCCCC(=O)O)c(C)c3cc2c1C`, with 27.8%. Next, `CCn1c(SCc2nc(N)nc(N3CCCCC3)n2)nc2c1c(=O)n(C)c(=O)n2C`: -7.16%; `COCCCNC(=S)NNC(=O)c1cc(Cl)c(O)c(Cl)c1`: 2.52%.

On to `C=C(Cl)COc1cc(C)cc2oc(=O)cc(CC)c12`, for which the “hERG current change (%, negative = inhibition) at 10uM” value was found to be 8.53%.

As to `COCC(=O)N1CCC(Oc2ccc(C(=O)NCc3cnc(C)cn3)cc2)CC1`, the “hERG current change (%, negative = inhibition) at 10uM” value was 14.8%. Next, `COc1ccc(NS(=O)(=O)c2cccc(C(=O)Nc3ccccc3C(=O)O)c2)cc1`: -3.84%; `Cn1c(=O)cc(Nc2ccccc2)[nH]c1=O`: 41.9%; `CCc1ccc(CNCCNCC(C)O)cc1.Cl` (stereo not shown): -0.67%. As for `COc1cc(S(=O)(=O)NC2CCCCC2)ccc1F`, the “hERG current change (%, negative = inhibition) at 10uM” value was -0.27%. For the molecule `CCC(C(=O)OCC(=O)c1ccc(OC)cc1OC)c1ccccc1` (stereo not shown), the “hERG current change (%, negative = inhibition) at 10uM” value was -9.78%. Take `COc1ccc(NC(=O)CSCc2ccccc2C)cc1`: the “hERG current change (%, negative = inhibition) at 10uM” value was determined as 14.5%. `CCOCCCNCc1c(Cl)cccc1Cl`: the “hERG current change (%, negative = inhibition) at 10uM” value is on record as -0.212%. With `O=c1c2ccccc2nnn1CSc1nc2sc3c(c2c(=O)n1CC1CCCO1)CCC3` (stereo not shown), the “hERG current change (%, negative = inhibition) at 10uM” value is reported as -3.27%. For the molecule `CS(=O)(=O)c1ccc(C(=O)N(Cc2ccccc2)c2ccccc2)cc1`, the “hERG current change (%, negative = inhibition) at 10uM” value worked out at 19.6%. Then `CC(=O)C1=C(O)C(=O)N(c2ccccn2)C1c1ccc(Cl)cc1` (stereo not shown), with 15.8%; and `CC(=O)Nc1cccc(OCc2cnc(Cl)s2)c1`, with 11.4%; and `CCOc1cc(/C=N/Nc2ncc(C)c(=O)[nH]2)ccc1O`, with 23.2%. `COc1ccc(Cc2nn3c(-c4ccccc4OC)nnc3s2)cc1`: the “hERG current change (%, negative = inhibition) at 10uM” value is -29%. As to `O=C(c1ccc(S(=O)(=O)N2CCCC2)cc1)N1CCCc2ccccc21`, the “hERG current change (%, negative = inhibition) at 10uM” value is reported as -15.3%.

For the molecule `Cc1sc(-c2ccccn2)nc1OC(=O)c1ccc(Cl)c(Cl)c1`, the “hERG current change (%, negative = inhibition) at 10uM” value is 6.24%. Then `CN(C(=O)CSc1ncnc2sc3c(c12)CCC3)C1CCS(=O)(=O)C1` (stereo not shown), with -11.5%; and `CCOc1ccc(S(=O)(=O)NCCC(=O)NCC(C)(C)N2CCOCC2)cc1`, with 4.75%.

Regarding `O=C(CN1CCOCC1)NCCNS(=O)(=O)c1ccccc1`, the “hERG current change (%, negative = inhibition) at 10uM” value is listed as -2.72%. Next, `O=C(/C=C/c1ccc(Cl)cc1)c1ccc([N+](=O)[O-])o1`: 13.8%; `CCOC(=O)c1cnc2nc(C)nn2c1N`: -13.1%; `CCCOc1ccc(/C=C/C(=O)NC2CCCCC2)cc1OC`: 3.73%.

Regarding `CC(=O)N1CCN(C(=S)c2ccc([N+](=O)[O-])cc2)CC1`, the “hERG current change (%, negative = inhibition) at 10uM” value is on record as -3.4%. Next, `Cc1nc2ccccc2n1CC(O)Cn1c(C(F)(F)F)nc2ccccc21` (stereo not shown): 7.05%; `O=C(COC(=O)c1ccco1)Nc1ccc2[nH]c(=O)[nH]c2c1`: 0.93%; `CCOC(=O)c1cc(NC(=O)c2cccnc2)cc(C(=O)OCC)c1`: 3.15%.

`Cc1nnc(NCc2cccc(Cl)c2)c2ccccc12`: the “hERG current change (%, negative = inhibition) at 10uM” value was -47.5%. Next, `C/C(=N\Nc1ccc2nncn2n1)c1ccco1`: 21.1%; `CCN(CC)S(=O)(=O)c1ccc(C(=O)NCC(c2ccc(OC)cc2)N2CCOCC2)cc1` (stereo not shown): -6.03%.
